The whole screen tested about 43,000 compounds, of which about 200 (0.47%) were called active. Roughly 12% stayed inconclusive and do not appear here. The call rests on the fitted dose curve; in most records, active means well fitted cell-killing curve with a large enough effect; inconclusive means small, poorly fitted or top-dose-only effect, or effect the other way; inactive means flat fitted curve, though single readings scatter. The list shows a part of the results.
On the % scale 0 is the no-effect control and ±100 the full control effect.

A short description of the assay: Cell viability qHTS assay in S16 Pmp22-F2sN cells. Further: nearly all actives have a fitted effect of over 65% in size. Particulars: S16 Pmp22-F2sN Schwann cells (luciferase reporters placed in the Pmp22 gene) viability, CellTiter-Glo, 24 h; series mostly up to 57.5 µM; activity change, negative = cytotoxicity: at the top concentration. From the text: Assay Provider: Jim Inglese Ph.D. National Center for Advancing Translational Science, National Institutes of Health, Rockville, MD CMT is a heterogeneous group of neurological disorders that affect approximately 1 in 2,500 people. In particular, the most common form of CMT, CMT1A is genetically linked to the duplication of the PMP22 gene which leads to Schwann cell overexpression, thus manifesting itself as a typical case of dose-sensitive diseases. To identify small molecule compounds that can mediate the expression of PMP22 we developed a phenotypic assay screening strategy by utilizing genome editing techniques to construct Schwann cell lines containing novel reporter technology to monitor the transcriptional or translational regulation of PMP22. For high sensitivity we use a bioluminescent reporter system embedded in the 3' UTR of the PMP22 gene (S16(c9) Pmp22-F2sN) to identify compounds that inhibit gene expression. […] We can further discriminate the effect of all transcriptionally active molecules on PMP22 translation or stability with an assay that incorporates a short NLuc peptide (HiBiT) at the C-terminus of expressed PMP22 (S16(f8) PMP22-HiBiT) allowing alpha complementation and luminescence detection of membrane-associated PMP22 protein. These assays were screened against the NCATS Sytravon Library Collection. Miniaturization of these assays to 1536-well plate format for quantitative high throughput screening (qHTS) yielded rich data sets immediately from the qHTS assay (S16(c9) Pmp22-F2sN), when compared with data from a cell viability assay (Cell TiterGlo) to identify compounds that decreased the output signals through cellular toxicity to streamline the selection process of actives for subsequent characterization using the HiBiT assay (S16(f8) PMP22-HiBiT).
Cell viability assay in S16 Pmp22-F2sN cells PROTOCOL TABLE (format as described by Inglese J, Shamu CE and Guy RK. 2007) SEQUENCE No. (e.g., 1, 2, 3, etc.); […] (e.g., Cells, Incubation, Reagent, etc.); VALUE and DESCRIPTION. 1. Cells. Add 500-1,000 cells in 4 uL in growth media (DMEM High Glucose, No Phenol Red media + 10% heat-inactivated FBS + 1% Pen/Strep supplemented media) per well into Greiner 1536-well white/solid bottom high base, TC-treated plates. 2. Compounds. Library compounds and controls added at 23nL per well, transferred by Pin Tool. 3. Incubation. Incubate plates at 37C, 5% CO2, 95% RH for 24 h. 4. Reagent. Add 3uL CellTiter-Glo per well of Greiner 1536-well plates. 5. Incubation. Incubate plates at room temperature for 15 min., protect from light. 6. Detector. FLuc luminescence measured using CCD-based camera (Viewlux). NOTES (numbers refer to Sequence numbers above; values are from representative experiments) 6. Luminescence Read: Clear filter; Exposure = 1 sec, Gain = High, Speed = Slow, Binning = 2X REFERENCES: 1. Inglese J, Shamu CE and Guy RK, Reporting data from high throughput screening of small molecule libraries, Nature Chemical Biology, 2007, 3(8): 438-441. doi.org/10.1038/nchembio0807-438 2. Yasgar A, Shinn P, Jadhav A, Auld DS, Michael S, Zheng W, Austin CP, Inglese J and Simeonov A, Compound Management for Quantitative High-Throughput Screening. J. Assoc. Lab. Auto., 2008, 13: 79-89. doi: 10.1016/j.jala.2007.12.004
A general note: qHTS replaces the single test concentration by a dilution series.
Take `Cc1nn(S(=O)(=O)c2ccc(Br)cc2)c(C)c1S(=O)(=O)N1CCCCCC1`: the “activity change, negative = cytotoxicity” value was inactive: 7.35%.

For the compound `Cc1cc(C)cc(NC(=O)CCS(=O)(=O)c2cccc3nsnc23)c1`, the “activity change, negative = cytotoxicity” value is inactive: 5.84%.

As for `COc1cccc(Cn2c(Oc3cc(C)cc(C)c3)nc3c2c(=O)n(C)c(=O)n3C)c1`, the “activity change, negative = cytotoxicity” value was inactive: -1.96%.

On to `CCc1ccc(N(CC)C(=O)c2cc3c(=O)oc4ccc(C)cc4c3s2)cc1`, for which the “activity change, negative = cytotoxicity” value was inactive: 8.84%.

As to `COc1cccc(NC(=O)C(=O)NCC(c2ccc3c(c2)OCO3)N2CCN(C)CC2)c1` (configuration not stated), the “activity change, negative = cytotoxicity” value is inactive: -25.9%.

For `Cc1cccc(C)c1Nc1nn2c(=O)c3cc4c(cc3nc2s1)OCO4`, the “activity change, negative = cytotoxicity” value was inactive: 10.8%.

Consider `CC(=O)c1ccc(NS(=O)(=O)c2cccc(S(=O)(=O)c3ccc(Cl)cc3)c2)cc1`, for which the “activity change, negative = cytotoxicity” value is inactive: -1.7%.

With `CCCC(=O)Nc1ccccc1OCc1cc(=O)n2cc(C)ccc2n1`, the “activity change, negative = cytotoxicity” value is inactive: 8.59%.

Consider `Cc1ccc(CCNC(=O)c2ccc3c(Cl)c4c(nc3c2)CCCC4)cc1`, for which the “activity change, negative = cytotoxicity” value is inactive: 26.2%.

As to `Cc1ccc(C)c(N2CCN(c3c(CN4CCCC4)c(=O)oc4ccccc34)CC2)c1`, the “activity change, negative = cytotoxicity” value was inactive: 2.27%.

Turning to `COc1ccccc1CNC(=O)c1ccc2nc(N3CCCCC3)sc2c1`, the “activity change, negative = cytotoxicity” value is inactive: 4.34%.

For the compound `CCC1CN(C(=O)N2CCC(C(=O)Nc3ccccc3F)CC2)c2ccccc2O1` (configuration not stated), the “activity change, negative = cytotoxicity” value is inactive: -0.958%.

For `O=C(Nc1cccc(Cl)c1Cl)c1cc(S(=O)(=O)NCc2ccc3c(c2)OCO3)ccc1F`, the “activity change, negative = cytotoxicity” value was inactive: -1.48%.

On to `Cc1ccc(-n2c(=O)cc(N3CCN(c4ccccc4Cl)CC3)[nH]c2=O)cc1`, for which the “activity change, negative = cytotoxicity” value is inactive: -4.55%.

For `CN(C)c1ccc(C(CNC(=O)c2ccccc2C(F)(F)F)N2CCOCC2)cc1` (configuration not stated), the “activity change, negative = cytotoxicity” value was inactive: 12.9%.

Take `CCCCSc1nnc2c(n1)OC(c1ccc(Br)s1)N(C(C)=O)c1ccccc1-2` (configuration not stated): the “activity change, negative = cytotoxicity” value was inactive: -0.544%.

As to `Cc1ccc(CN2CCCN(CC(=O)Nc3ccc(C)cc3C)S2(=O)=O)cc1`, the “activity change, negative = cytotoxicity” value was inactive: -0.701%.

For `Cc1c(C(=O)Nc2ccc(C(=O)O)cc2)nnn1-c1ccccc1`, the “activity change, negative = cytotoxicity” value is inactive: -4.77%.

On to `CSc1ccc(CCNC(=O)Cn2ccc3cc(S(=O)(=O)N4CCCCCC4)ccc32)cc1`, for which the “activity change, negative = cytotoxicity” value is inactive: -0.847%.

Regarding `O=C(Nc1nc2n(n1)C(c1ccc(F)cc1)C=C(c1ccccc1)N2)c1ccco1` (configuration not stated), the “activity change, negative = cytotoxicity” value was inactive: -23.2%.

`O=c1c(-c2cc(-c3ccccc3)nc3c2COc2ccc(Cl)cc2-3)coc2ccc(F)cc12`: the “activity change, negative = cytotoxicity” value was inactive: 11.2%.

On to `Cc1c(Cl)cccc1NC(=O)c1ccc2c(c1)CCN2S(=O)(=O)c1ccccc1`, for which the “activity change, negative = cytotoxicity” value was inactive: 3.16%.

As for `Cn1nnnc1SCCCNCc1cc(Cl)ccc1OCc1ccc(F)cc1`, the “activity change, negative = cytotoxicity” value is inactive: -27.7%.

In the case of `COC(=O)c1c(NC(=O)c2nc(SCc3ccc(F)cc3)ncc2Cl)sc2c1CCCC2`, the “activity change, negative = cytotoxicity” value is inactive: 1.89%.

`Nc1c(C(=O)Nc2ccc(OC(F)(F)F)cc2)sc2nc(-c3ccncc3)ccc12`: the “activity change, negative = cytotoxicity” value was inactive: 2.96%.

As to `Cc1nn2c(=O)cc(COC(=O)Cc3ccccc3)nc2s1`, the “activity change, negative = cytotoxicity” value is inactive: 13.1%.

As for `CCOc1ccccc1-c1noc(CSc2nnc(-c3ccccc3)n2-c2ccc(F)cc2)n1`, the “activity change, negative = cytotoxicity” value is inactive: -4.21%.

Source of the values: PubChem BioAssay AID1508642 (National Center for Advancing Translational Sciences (NCATS), 2021).
